The whole screen tested about 390,000 compounds, of which about 1,400 (0.36%) were called active. This list was built around the results that the source calls inconclusive (neither active nor inactive); the mix of calls is not that of the screen. The call rests on the fitted dose curve; in most records, active means well fitted inhibition curve with a large enough effect; inconclusive means small, poorly fitted or top-dose-only effect; inactive means no such curve, though single readings can be large or run the other way. Potencies beside an inconclusive call are fits to weak or partial responses and may not hold up.
molecular target: Flap endonuclease 1 (Homo sapiens) (UniProt P39748); experiment: qHTS Assay for the Inhibitors of Human Flap endonuclease 1 (FEN1).; further: nearly all actives have a fitted effect of over 65% in size; settings: Recombinant FEN1 flap cleavage, fluorescence, 15 min; series mostly up to 114 µM; activity change, negative = inhibition: at the top concentration
Procedure, shortened: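 Read-out was taken twice, immediately and after 15 min, following addition of 50 nM substrate to 10 nM FEN1 that had sat with test compound for 15 min at room temperature. Curves came from a four-parameter Hill model.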
On the % scale 0 is the no-effect control and ±100 the full control effect; potency means the concentration at half of the fitted maximal effect; tags describe the fitted curve by direction and shape.

UniProt P39748, sequence (P39748 whole entry, looked up): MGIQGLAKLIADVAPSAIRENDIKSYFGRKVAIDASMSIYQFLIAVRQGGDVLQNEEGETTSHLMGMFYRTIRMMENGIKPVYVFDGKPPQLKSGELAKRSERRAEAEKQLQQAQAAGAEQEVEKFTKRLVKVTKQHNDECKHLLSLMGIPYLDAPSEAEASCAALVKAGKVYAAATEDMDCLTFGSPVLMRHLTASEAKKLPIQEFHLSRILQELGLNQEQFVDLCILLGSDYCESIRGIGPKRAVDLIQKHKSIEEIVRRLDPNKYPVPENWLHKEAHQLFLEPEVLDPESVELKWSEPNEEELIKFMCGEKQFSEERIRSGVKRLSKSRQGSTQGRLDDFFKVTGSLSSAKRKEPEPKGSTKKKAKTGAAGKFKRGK

Question: `CN1CCc2nc3sc(C(=O)Nc4cccc(C#N)c4)c(N)c3cc2C1` was tested. Which Potency did it give?
Answer: active: 39.8 µM

Question: For `CCOC(=O)Nc1cccnc1Sc1ccc(Cl)cc1`, which “activity change, negative = inhibition” value is on record?
Answer: inactive: 6.81%

Question: `NNC(=S)Nc1cccc(-c2n[nH]c(=S)o2)c1` was tested. Which Potency did it give?
Answer: active: 50.1 µM

Question: For `Cc1ccc2c(CC(=O)N(Cc3ccc(Cl)cc3)Cc3ccco3)coc2c1`, which Potency is on record?
Answer: inconclusive: 39.8 µM [inhibitor, partial curve, poor fit]

Question: `CCC(=O)N1CCCc2cc(S(=O)(=O)N3CCC(C(=O)Nc4ccccc4CC)CC3)ccc21` was tested. Which “activity change, negative = inhibition” value did it give?
Answer: inactive: 2.25%

Question: With `CCCOc1ccc(C2c3c(-c4ccccc4O)n[nH]c3C(=O)N2CCCOCC)cc1OCC` (stereo not given) as the molecule, how does the Potency read?
Answer: inconclusive: 44.7 µM [inhibitor, partial curve, poor fit]

Question: With `COc1cc(/C=C2\SC(=S)N(NC(=O)c3ccc(O)c(OC)c3)C2=O)ccc1O` as the molecule, how does the Potency read?
Answer: inconclusive: 31.6 µM [inhibitor, partial curve]

Question: With `Cc1[nH]n(-c2ccccc2)c(=O)c1/C=N/N1C(=O)c2ccc3c4c(ccc(c24)C1=O)CC3` as the molecule, how does the Potency read?
Answer: inconclusive: 39.8 µM [inhibitor, partial curve]

Question: `COc1ccccc1N1CCN(c2ccc(-c3nc(-c4ccccc4)no3)cc2[N+](=O)[O-])CC1` was tested. Which “activity change, negative = inhibition” value did it give?
Answer: inactive: -5.98%

Question: Which Potency does the source give for `O=c1[nH]sc2ccccc12` here?
Answer: inconclusive: 89.1 µM [inhibitor, single point]

Question: How did the Potency turn out when `CN(C)c1ccc(/C=C/c2cccc3cc4ccccc4nc23)cc1` was run?
Answer: active: 79.4 µM

Question: `COc1ccc(OC)c(/C=C/c2cc3ccccc3cn2)c1` was tested. Which Potency did it give?
Answer: inconclusive: 79.4 µM [inhibitor, partial curve]

Question: How did the Potency turn out when `Cc1ccc(C2CC(=O)Oc3cc(C)cc(C)c32)cc1` (stereo not given) was run?
Answer: inconclusive: 79.4 µM [inhibitor, partial curve, poor fit]

Question: With `COc1cc(OC)cc(-c2nc3ccccc3s2)c1` as the molecule, how does the Potency read?
Answer: inconclusive: 56.2 µM [inhibitor, partial curve, poor fit]

Question: How did the Potency turn out when `Cc1ccc(OCCNc2cc(N3CCN(CCO)CC3)ccc2[N+](=O)[O-])cc1C` was run?
Answer: inconclusive: 70.8 µM [inhibitor, partial curve, poor fit]

Question: How did the Potency turn out when `CCN(CC)C(=O)COC(=O)c1cc(-c2ccc(OC)cc2)nc2ccccc12` was run?
Answer: inconclusive: 79.4 µM [inhibitor, partial curve, poor fit]

Question: How did the “activity change, negative = inhibition” value turn out when `Nc1cc(=O)[nH]c(SCC(=O)N2N=C(c3ccc(Cl)cc3)CC2c2ccco2)n1` (stereo not given) was run?
Answer: inactive: 3.61%

Question: For `Cc1cccc2cc(/C=N/Nc3ccc(C(=O)O)cc3)c(Cl)nc12`, which Potency is on record?
Answer: inconclusive: 89.1 µM [inhibitor, single point]

Question: Which Potency does the source give for `CCN1C(=O)CC(c2ccccc2)N(C2CCCC2)c2nc(Nc3ccc(C(=O)NC4CCN(C)CC4)cc3OC)ncc21` (stereo not given) here?
Answer: inconclusive: 89.1 µM [inhibitor, single point]

Question: For `O=C(CSc1nc2ccccc2o1)N/N=C/c1ccc(O)c(O)c1`, which Potency is on record?
Answer: inconclusive: 8.91 µM [inhibitor, full curve, poor fit]

Question: For `CN(C)CCNc1nc2sc3c(c2c(=O)n1CCc1ccccc1)CCCCC3`, which Potency is on record?
Answer: inconclusive: 44.7 µM [inhibitor, partial curve, poor fit]

Question: How did the Potency turn out when `N#Cc1cc(C(=O)c2cc(F)ccc2O)cn(-c2nccs2)c1=O` was run?
Answer: inconclusive: 79.4 µM [inhibitor, single point]

Question: With `Cc1cccc(NCc2ccc(O)c3ncccc23)c1C` as the molecule, how does the Potency read?
Answer: inconclusive: 44.7 µM [inhibitor, partial curve, poor fit]

Question: `COc1ccc(-c2nn(-c3ccccc3)cc2/C=C\C(=O)Nc2ccc(C(=O)O)cc2)cc1` was tested. Which Potency did it give?
Answer: inconclusive: 50.1 µM [inhibitor, partial curve]

Question: Which “activity change, negative = inhibition” value does the source give for `O=C1C=CC(=O)C(C2=C3C(=O)N(CCc4ccccc4)CC(=O)N3CCC2)=C1` here?
Answer: inactive: 7.08%

Question: `COc1ccc(C(=O)CSc2nnc(-c3ccco3)c(-c3ccco3)n2)cc1` was tested. Which Potency did it give?
Answer: inconclusive: 56.2 µM [inhibitor, partial curve, poor fit]

Question: `COc1ccccc1CN1CC(C(=O)NCCCc2ccc(F)cc2)CCC1=O` (stereo not given) was tested. Which “activity change, negative = inhibition” value did it give?
Answer: inactive: 18.4%

Question: For `C=C/C(C)=C/CC1C(=C)CCC2C(C)(C(=O)O)CCCC12C` (stereo not given), which Potency is on record?
Answer: inconclusive: 50.1 µM [inhibitor, partial curve]

Question: For `CCN1C(=O)/C(=C\c2cccn2-c2ccc([N+](=O)[O-])cc2)N(CC)C1=S`, which Potency is on record?
Answer: inconclusive: 89.1 µM [inhibitor, partial curve, poor fit]

Question: With `Cc1c(N=Cc2cc3c(cc2[N+](=O)[O-])OCO3)cccc1[N+](=O)[O-]` as the molecule, how does the Potency read?
Answer: inconclusive: 39.8 µM [inhibitor, partial curve, poor fit]

Question: `CCCOC(=O)c1cccc(Nc2nc(C(=O)OCC)nc3ccccc23)c1` was tested. Which Potency did it give?
Answer: inconclusive: 89.1 µM [inhibitor, partial curve, poor fit]

Question: `Cc1ccc(C)c(Cn2nnc3c(=O)[nH]c(C4CCCN(C(=O)C5CCCCC5)C4)nc32)c1` (stereo not given) was tested. Which “activity change, negative = inhibition” value did it give?
Answer: inactive: -22%

Question: How did the Potency turn out when `CCn1c(=O)c2cc(C(=O)NCCc3ccc(OC)c(OC)c3)sc2c2ccccc21` was run?
Answer: inconclusive: 89.1 µM [inhibitor, single point]

Question: `O=C(O)CN1C(=O)/C(=C\c2cccc(OCc3ccc(Cl)cc3Cl)c2)SC1=S` was tested. Which Potency did it give?
Answer: inconclusive: 89.1 µM [inhibitor, single point]

Question: Which “activity change, negative = inhibition” value does the source give for `Cc1cccc(OCC(=O)Nc2cc(S(=O)(=O)N3CCCCC3)ccc2N2CCN(C)CC2)c1` here?
Answer: inactive: -4.9%

Question: With `COc1cc(S(=O)(=O)O)c(C)cc1N=Nc1c(O)ccc2cc(S(=O)(=O)O)ccc12` as the molecule, how does the Potency read?
Answer: active: 35.5 µM

Question: How did the Potency turn out when `COC(=O)c1cc2c(ccc3ccccc32)oc1=O` was run?
Answer: inconclusive: 50.1 µM [inhibitor, partial curve, poor fit]

Question: With `Nc1nc(Nc2cccc(F)c2)nc(NCc2ccco2)c1[N+](=O)[O-]` as the molecule, how does the Potency read?
Answer: inconclusive: 50.1 µM [inhibitor, partial curve, poor fit]

Question: For `Cn1ccc(=Nc2ccc(NC(=O)c3ccc(N=c4ccn(C)c5ccc([N+](=O)[O-])cc45)cc3)cc2)cc1`, which Potency is on record?
Answer: inconclusive: 14.1 µM [inhibitor, full curve, poor fit]

Question: `O=C(COc1cccc2ccccc12)N/N=C/c1ccccc1OCc1ccc(C(=O)O)cc1` was tested. Which Potency did it give?
Answer: inconclusive: 56.2 µM [inhibitor, partial curve, poor fit]

Reference: PubChem BioAssay AID588795 (National Center for Advancing Translational Sciences (NCATS), 2011)
